Measurements taken from PubChem BioAssay AID463173 (ICCB-Longwood Screening Facility, Harvard Medical School, 2010).
Screen size: about 52,000 compounds; about 1,700 (3.3%) were called active. No stated cut-off is given here; in the data, active means survival mostly below about 52% (no sharp cut-off); inactive means mostly above about 56%. The list shows a part of the results.

tested on: Wild type; assay: growth inhibition of S. aureus wild type versus tarO mutant, primary screen, teichoic acid synthesis inhibitors, RN4220, OD600 (AID 463173); details: S. aureus RN4220 wild type/DeltatarO growth, OD600, 18 h, active compounds read low, screened at 18.75 µg/mL (by protocol)

Structure (SMILES) | survival
O=C(Nc1ccc(OC(F)(F)F)cc1)C(Cc1ccccc1)NS(=O)(=O)c1cccc2nsnc12 (configuration not stated) | inactive: 68%
Cc1ccc2c(NC(=O)C3CC3)cccc2n1 | inactive: 99%
COC(=O)c1ccc(C2c3c(oc4ccc(C)cc4c3=O)C(=O)N2Cc2ccc3c(c2)OCO3)cc1 (configuration not stated) | inactive: 85%
O=C(O)C1CC2C=CC1O2 (configuration not stated) | inactive: 112%
COc1cccc(CNC(=O)Cn2ccc3cc(S(=O)(=O)N4CCCC4)ccc32)c1OC | inactive: 78%
Cc1ccc(S(=O)(=O)c2nnn3c2nc(NCc2ccc4c(c2)OCO4)c2sccc23)cc1 | inactive: 110%
CCOC(=O)c1c(Nc2ccc(O)cc2)nnc(-c2ccccc2)c1-c1ccccc1 | inactive: 96%
O=C(c1ccccc1)N1CCc2ccccc21 | inactive: 106%
O=C(O)c1ccccc1C(=O)N1CCC(C(=O)c2ccccc2)CC1 | inactive: 104%
CCC1Oc2ccc(C)cc2N(CC(=O)NCCc2ccccc2)C1=O (configuration not stated) | inactive: 59%
CCOC(=O)c1cnc2ccc(OC(F)(F)F)cc2c1Nc1ccccc1C(=O)O | inactive: 52%
COc1cccc(/C=C/c2nc(C#N)c(N3CCCCCC3)o2)c1 | inactive: 76%
Cc1ccc(NC(=O)CCCN2C(=O)COc3ccc(C)cc32)c(Cl)c1 | inactive: 107%
NCCCc1nc2ccccc2[nH]1 | inactive: 100%
Cc1cc(C)n(CC(=O)Nc2nc(-c3ccccc3)cs2)n1 | inactive: 110%
CCOC(=O)c1cnn2c(C(F)(F)F)cc(-c3ccc(Br)cc3)nc12 | inactive: 74%
COc1ccc(-c2cnc(C)o2)cc1S(=O)(=O)Nc1cccc(C(F)(F)F)c1 | inactive: 77%
O=C(Nc1cccc(C(F)(F)F)c1)C1CCN(S(=O)(=O)c2cccc3nsnc23)CC1 | inactive: 88%
COC(=O)Cc1c(C)c2ccc3c(c2oc1=O)CN(Cc1ccc(C)cc1)CO3 | inactive: 118%
Cc1ccccc1-c1noc(CSc2nc(-c3ccc(F)cc3)cc(=O)[nH]2)n1 | active: 10%
COc1ccc(-n2nnnc2SCC(=O)NCCc2ccccc2)cc1 | inactive: 55%
Cc1sc2ncn3ncnc3c2c1C | inactive: 98%
O=C(Nc1ccc(OCc2cc(=O)n3c4c(sc3n2)CCCC4)cc1)c1ccc(F)cc1 | inactive: 85%

Structure (SMILES) | survival
CCOc1ccc(CCNC(=O)CCn2c(=O)c3cccn3c3ccc(F)cc32)cc1 | inactive: 71%
O=C(O)CC1=C(c2ccc(F)cc2)CCC1=O | inactive: 108%
Cc1ccc(NC(=O)Cn2nc(C(F)(F)F)c3c2CCC3)cc1C | inactive: 81%
CC(C)COc1ccc(C(=O)Nc2onc3c2CCCC3)cc1 | inactive: 115%
NC(=O)C1CCN(c2ncnc3c2cnn3-c2cccc(Cl)c2)CC1 | inactive: 79%
CCc1ccccc1NS(=O)(=O)c1ccc2[nH]cc(C(=O)NC3CCCC3)c(=O)c2c1 | inactive: 42%
COc1ccc(-c2noc(-c3ccc(NCc4ccco4)c([N+](=O)[O-])c3)n2)cc1OC | inactive: 63%
Cc1cccc(CNC(=O)CCCN2C(=O)c3cccnc3Oc3ccccc32)c1 | inactive: 74%
CCOc1ccc(C(=O)NCCc2sc(-c3cccc(F)c3)nc2C)cc1OCC | inactive: 71%
CCc1ccc(N2CC(c3nc4ccccc4n3Cc3ccccc3C)CC2=O)cc1 (configuration not stated) | inactive: 53%
Cc1ccc(C2=NN(CCC(=O)NCCc3cccc(C)c3)C(=O)CC2)cc1 | inactive: 120%
COc1ccc(Cn2c(NCC(C)C)nc3c2c(=O)n(C)c(=O)n3C)cc1 | inactive: 69%
CN(C(=O)CSc1nc2ccc(NC(=O)c3ccccc3)cc2s1)c1ccccc1 | inactive: 77%
O=C(CSc1oc(-c2cccs2)nc1S(=O)(=O)c1ccccc1)Nc1ccc(F)cc1 | inactive: 70%
CC(=O)Nc1cccc(-c2nnc(SCC(=O)c3ccc([N+](=O)[O-])cc3)o2)c1 | inactive: 123%
CCC1CCCCN1C(=O)COc1ccc(F)cc1 (configuration not stated) | inactive: 113%
COc1ccc(OC)c(CNC(=O)c2cnc(N(C)C)nc2)c1 | inactive: 74%
Cc1ccc(-n2nc(C)c3c(C(=O)Nc4ccc(C)cc4Cl)cc(C)nc32)cc1 | inactive: 45%
COc1cc(CN(C(=O)c2ccc(C)cc2)c2ccccn2)cc(OC)c1OC | inactive: 83%
CCOC(=O)CSc1nc(-c2ccc(OC)cc2)cc(C(F)(F)F)c1C#N | inactive: 85%
COc1ccc(C(=O)CC2(O)C(=O)N(CCc3ccccc3)c3ccc(Br)cc32)cc1OC (configuration not stated) | inactive: 65%
CCOC(=O)c1ccc2c(c1)C(=O)N(c1ccccc1OC)C2=O | inactive: 87%
COc1cccc(-n2c(=O)c3c4c(sc3n(Cc3ccccc3C#N)c2=O)CCCC4)c1 | inactive: 80%

Structure (SMILES) | survival
Cc1ccccc1-c1noc(-c2ccc(NC3CCCC3)c([N+](=O)[O-])c2)n1 | inactive: 97%
O=C(Cn1nc2c(cc1=O)CCCC2)NCc1ccccc1 | inactive: 79%
COc1ccc(-n2nc(C(=O)N3CCN(c4cccc(C)c4)C(C)C3)c3c4ccccc4n(C)c3c2=O)cc1Cl (configuration not stated) | inactive: 87%
O=S(=O)(c1ccc2nc(Nc3ccc(Br)cc3F)ccc2c1)N1CCCC1 | inactive: 128%
CCOc1ccc(OCC)c(NS(=O)(=O)c2ccc3c(c2)CCCN3C(C)=O)c1 | inactive: 89%
CCc1nnc(NC(=O)c2nc(SCc3ccc(F)cc3)ncc2Cl)s1 | inactive: 58%
CCC(c1nnnn1CC1CCCO1)N(Cc1ccc2c(c1)OCO2)Cc1cc2cc(C)cc(C)c2[nH]c1=O (configuration not stated) | inactive: 107%
O=C(OCC1CCCO1)c1ccc2c(c1)N(Cc1c(F)cccc1Cl)C(=O)c1ccccc1S2(=O)=O (configuration not stated) | inactive: 73%
CCCCn1c(C2CC(=O)N(c3ccc(OCC)cc3)C2)nc2ccccc21 (configuration not stated) | inactive: 84%
COCC(C)NC(=O)C1=CC(c2ccc3c(c2)OCO3)=NS(=O)(=O)N1C (configuration not stated) | inactive: 103%
CCOCCn1c(=NC(=O)c2ccc3c(c2)OCCO3)sc2cc(OCC)ccc21 | inactive: 92%
Cc1cc(C)c(NC(=O)c2ccc3nc(C(C)C)oc3c2)c(C)c1 | inactive: 110%
O=C(Cn1cc(SCc2ccc(F)cc2)c2ccccc21)N1CCCC1 | inactive: 71%
CCN(CC)S(=O)(=O)c1ccc2c(c1)c(=O)c(C(=O)N1CCN(c3cc(C)ccc3C)CC1)cn2C | inactive: 82%
CCC(C(=O)NC1CCCCC1)n1nc(C)c2sc3ccccc3c2c1=O (configuration not stated) | inactive: 85%
COc1ccc(S(=O)(=O)N2CCC(c3nnnn3-c3ccccc3)CC2)cc1OC | inactive: 88%
Cc1ccc(Cl)cc1N1CCN(C(=O)c2cnc3c(-c4ccc(F)cc4)c(C)nn3c2C)CC1 | inactive: 69%
O=C(Nc1ccccc1C(F)(F)F)C1CCN(c2nnc(-n3cccc3)s2)CC1 | inactive: 113%
CSc1ccc(-c2nc3cc(C)ccn3c2Nc2ccc(C)cc2)cc1 | inactive: 87%
Cc1cccc(-c2nc(S(=O)(=O)c3ccccc3)c(N3CCN(c4ccccc4)CC3)o2)c1 | inactive: 114%
CCc1ccc(NC(=O)C(=O)NCCc2sc(-c3ccc(C)cc3)nc2C)cc1 | inactive: 55%
O=C(CSc1nc2c(c(=O)[nH]1)CCC2)Nc1cc(C(F)(F)F)ccc1Cl | inactive: 85%
NNc1nc2ccccc2c(=O)n1Cc1ccccc1 | inactive: 107%

Structure (SMILES) | survival
COc1ccc(NCc2cccn2-c2nnc(N3CCC(C)CC3)s2)c(OC)c1 | inactive: 89%
Cn1ccc2c(OCC(=O)NCc3ccc(F)cc3)cccc2c1=O | inactive: 63%
NC(=O)C1CCN(c2nc(C3CC3)nc3c2nnn3Cc2ccccc2Cl)CC1 | inactive: 108%
CCOC(=O)c1cc(S(=O)(=O)Nc2cc(C)c(Cl)cc2OC)[nH]n1 | inactive: 98%
COc1c(Cl)cc(Cl)cc1C(=O)Nc1cccc2cccnc12 | inactive: 143%
Cc1ccc(C(=O)c2cn(Cc3ccccc3)c3cc4c(cc3c2=O)OCCO4)cc1 | inactive: 147%
CCc1cccc(NC(=O)CSc2nccn2C)c1 | inactive: 77%
CC(=O)c1ccc(NC(=O)CSc2nnc(NC(=O)NC3CCCCC3)s2)cc1 | inactive: 45%
Cc1cccc(Cn2c(CNC(=O)c3ccccc3)nc3ccccc32)c1 | inactive: 84%
CC(C)OCCCNC(=O)c1c2c(nc3ccccc13)C(=O)N(C1CCCCC1)C2 | inactive: 19%
Cc1ccn2c(Nc3ccc(C(C)C)cc3)c(-c3ccsc3)nc2c1 | inactive: 87%
O=C(CCN1CCOCC1)Nc1ccc(Cl)cc1 | inactive: 100%
Cc1cc(C)c(NC(=O)Nc2sc3nc4n(c(=O)c3c2C)CCC(C)CC4)c(C)c1 (configuration not stated) | inactive: 85%
Cc1cc(C)cc(Nc2ncnc3sc4c(c23)CCCC4)c1 | active: -3%
C=CCn1c(SCC(N)=O)nnc1-c1ccccc1O | inactive: 111%
CCOC(=O)c1cc(-c2ccccc2)n(CC(=O)Nc2cc(Cl)c(OC)cc2OC)c1C | inactive: 128%
Cc1nn(C(C)C(=O)Nc2cccc(F)c2)c(=O)c2c1sc1ccccc12 (configuration not stated) | inactive: 111%
Cc1ccc(Nc2c(-c3ccc(N4CCOCC4)cc3)nc3ncccn23)c(C)c1 | inactive: 86%
COCCNC(=O)CCSc1nc(-c2ccc(OC)cc2)cc(C(F)(F)F)n1 | inactive: 84%
CCCCCOc1ccccc1Cn1c(=O)oc2ccc(C)cc21 | active: 15%
O=C(NC1CCCC1)c1ccc(CSc2nc3cccnc3n2Cc2ccccc2F)cc1 | inactive: 32%
CC1CCCN(Cc2c(O)ccc3c(=O)c(-c4ccccc4Cl)c(C(F)(F)F)oc23)C1 (configuration not stated) | inactive: 65%
O=C(Cn1c(-c2cccs2)cc2ccccc21)NCCCN1CCN(c2ccc(F)cc2)CC1 | inactive: 136%
